In publication PMC4336329 (PLoS ONE, 2015):
Out of some 310,000 compounds screened, about 2,200 (0.71%) showed an effect of 50% or more. Effects have a minus sign here. The list shows a part of the results.

Biological target: human ether-à-go-go-related gene (hERG) potassium channel (human, UniProt Q12809)
Assay: primary screen, population patch clamp on CHO cells stably expressing hERG

Sequence of human ether-à-go-go-related gene (hERG) potassium channel (Q12809 whole entry, looked up): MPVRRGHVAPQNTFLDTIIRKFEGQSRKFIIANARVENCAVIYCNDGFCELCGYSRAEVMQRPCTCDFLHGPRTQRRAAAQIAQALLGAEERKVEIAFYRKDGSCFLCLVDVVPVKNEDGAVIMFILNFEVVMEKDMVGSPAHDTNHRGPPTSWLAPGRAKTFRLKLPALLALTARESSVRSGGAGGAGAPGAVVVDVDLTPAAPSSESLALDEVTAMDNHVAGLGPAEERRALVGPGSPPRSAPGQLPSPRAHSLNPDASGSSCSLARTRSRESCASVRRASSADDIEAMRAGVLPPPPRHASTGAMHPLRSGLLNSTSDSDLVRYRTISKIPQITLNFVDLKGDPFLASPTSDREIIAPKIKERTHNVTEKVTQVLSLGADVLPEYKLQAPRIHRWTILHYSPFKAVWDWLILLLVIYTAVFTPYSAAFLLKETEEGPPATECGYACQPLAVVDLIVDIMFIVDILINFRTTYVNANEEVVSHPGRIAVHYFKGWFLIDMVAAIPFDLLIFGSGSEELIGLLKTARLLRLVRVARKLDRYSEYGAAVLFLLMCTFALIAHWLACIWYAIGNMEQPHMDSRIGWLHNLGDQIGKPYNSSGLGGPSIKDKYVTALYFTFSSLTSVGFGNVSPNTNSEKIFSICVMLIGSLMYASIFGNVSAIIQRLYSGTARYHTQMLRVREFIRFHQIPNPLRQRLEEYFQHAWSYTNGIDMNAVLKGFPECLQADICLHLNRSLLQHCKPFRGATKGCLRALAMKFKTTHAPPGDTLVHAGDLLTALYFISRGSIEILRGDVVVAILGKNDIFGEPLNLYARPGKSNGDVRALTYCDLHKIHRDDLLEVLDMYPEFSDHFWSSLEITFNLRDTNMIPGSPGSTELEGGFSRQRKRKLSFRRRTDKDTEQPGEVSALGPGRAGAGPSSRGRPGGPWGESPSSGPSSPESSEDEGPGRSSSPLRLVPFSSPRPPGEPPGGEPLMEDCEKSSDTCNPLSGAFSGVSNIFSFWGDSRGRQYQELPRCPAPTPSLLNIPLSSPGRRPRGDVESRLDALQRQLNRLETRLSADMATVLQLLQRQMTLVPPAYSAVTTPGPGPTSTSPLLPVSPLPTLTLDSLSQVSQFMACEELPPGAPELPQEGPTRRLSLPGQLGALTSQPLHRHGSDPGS

Row | Compound | hERG current change (%, negative = inhibition) at 1uM [%]
1 | O=c1c2ccccc2cnn1Cc1nnc(-c2cccs2)o1 | 13.7
2 | CCCCNCCOCCSc1ccc(Cl)cc1.O=C(O)C(=O)O | 0.752
3 | Brc1ccccc1-c1nnc(COc2cccc3cccnc23)o1 | 9.91
4 | COc1ccc(CNC(=O)c2cc3ccccc3oc2=O)cc1 | 7.93
5 | O=C(NCc1cccnc1)c1cc(Sc2ccc(F)cc2F)nc2ccccc12 | -1.9
6 | COc1cc(/C=N/Nc2ccc(S(N)(=O)=O)cc2)cc(OC)c1OC | 10.9
7 | Cc1ccc(-c2cc(C(=O)Nc3ccc(S(=O)(=O)N4CC(C)OC(C)C4)cc3)[nH]n2)c(O)c1 (centres unmarked) | 13.3
8 | CCOC(=O)C(O)(c1ccc(N)c(OC)c1)C(F)(F)F (centres unmarked) | 8.72
9 | CN(C(=O)CN1CCC(NC(=O)c2ccccc2Br)CC1)C1CCCCC1 | 11.2
10 | CC(C)NCC(O)COc1ccc(Br)cc1.Cl (centres unmarked) | -2.04
11 | CCN(CC)C(=O)c1[nH]cnc1C(=O)N[C@@H](CC(C)C)C(=O)OC(C)(C)C | 16.6
12 | CN1CC(=O)N2[C@H](c3ccc4c(c3)OCO4)c3[nH]c4ccccc4c3C[C@@H]2C1=O | 6.62
13 | O=C(Nc1nnc(C2=COCCO2)o1)c1ccc([N+](=O)[O-])s1 | 1.37
14 | Cc1ccccc1NC(=O)COC(=O)C1C2CC3OC(=O)C1C3C2 (centres unmarked) | 10
15 | O=C(CCc1ccc(S(=O)(=O)NC2CCCCC2)cc1)NCc1ccccn1 | 20.4
16 | CC(=O)Nc1ccc(C(=O)CSc2nnc(C)o2)cc1 | 2.67
17 | CCC(O)CNC(=O)NC(=C(Cl)Cl)c1ccc(C)c(F)c1 (centres unmarked) | -2.35
18 | CCCCn1c(=O)n(CC(=O)Nc2ccc(OC)c(Cl)c2)c(=O)c2c1nc(CO)n2CCC | 12
19 | CC(C)NC(=O)c1ccc(-c2cc(C(F)(F)F)ccc2Cl)o1 | 6.75
20 | Cc1c(Cl)cccc1NC(=O)CSCC(N)=O | -5.11
21 | Cc1ccc([C@@H]2[C@@H]3C(=O)N(c4ccccc4)C(=O)[C@@H]3[C@]3(C)C(=O)N(Cc4ccc(-c5ccccc5)cc4)CC(=O)N23)o1 | 9.8
22 | O=C(c1ccccc1)c1ccc(Cn2cc(-c3ccccc3)nn2)cc1 | -11.1

Row | Compound | hERG current change (%, negative = inhibition) at 1uM [%]
23 | Cc1onc(-c2c(F)cccc2Cl)c1C(=O)N1CCc2ccccc2C1 | 0.111
24 | O=C(c1ccco1)N(Cc1cccc([N+](=O)[O-])c1)c1ccc(Br)cc1 | -11.4
25 | CC(=O)Nc1ccc(S(=O)(=O)c2ccc(C)cc2)cc1 | 19.7
26 | Cc1no[n+]([O-])c1COc1cccc(/C=C2\N=C(c3ccccc3)OC2=O)c1 | 11.8
27 | COc1ccc(S(=O)(=O)N2CC(C(=O)O)Oc3ccc(CC(=O)O)cc32)cc1 (centres unmarked) | 19
28 | CC(C)COc1ccc(Cc2cnc(N)nc2N)cc1 | 3.93
29 | C/C(=N\NC(=O)Cc1ccc(Cl)cc1)c1ccc(F)cc1 | 12.3
30 | CCN1CCN(C(=O)NC2CC(=O)N(c3ccc(OC)cc3)C2)CC1 (centres unmarked) | 12.5
31 | CC1CCN(CCOc2cccc(Br)c2)CC1.O=C(O)C(=O)O | -0.356
32 | CC(O)CNc1nc2sc3c(c2c(=O)n1Cc1ccco1)CCCCC3 (centres unmarked) | 11.4
33 | CC(C)CNC(=O)NC(=O)COC(=O)c1ccccc1Sc1ccc(C(F)(F)F)cc1[N+](=O)[O-] | 16.9
34 | CCCn1ncc(CN2CCC(C(=O)Nc3cccc(-c4cccc(F)c4)c3)CC2)c1C | -60.6
35 | O=C(CN1C(=O)NC2(CCOc3ccccc32)C1=O)Nc1cccc(Cl)c1 (centres unmarked) | 6.54
36 | COC(=O)N1C(=O)[C@@](c2ccccc2)(C2CCCCC2)N1C(=O)OC | 18.7
37 | CCOc1cc(N2CCOCC2)c(OCC)cc1NC(=O)c1cccc(N(C)C)c1 | 1.71
38 | COc1ccc(N2CC(C(=O)Nc3nc4ccc(F)cc4s3)CC2=O)c(OC)c1 (centres unmarked) | 2.8
39 | C=CCNC(=O)c1ccc2c(c1)nnn2C | 10
40 | CCc1ccc(NC(=O)Cn2nnc(C(=O)NCc3cccs3)c2N)cc1 | 10.1
41 | Cc1ccc(C(=O)N/N=C/C=C/c2ccccc2)cc1 | 6.78
42 | COc1cc(CNc2ccc(NC(C)=O)cc2)ccc1OCc1ccccc1C | 1.41
43 | Cc1ccc(NC(=O)CN(C)C(=O)C2CC(=O)N(Cc3ccccc3)C2)cc1 (centres unmarked) | 0.268
44 | O=C(CCNc1ccc(Cl)c(C(F)(F)F)c1)c1ccco1 | 6.68

Row | Compound | hERG current change (%, negative = inhibition) at 1uM [%]
45 | CN(CC(=O)Nc1c(Cl)cccc1Cl)C(=O)CNC(=O)c1ccc2c(c1)OCO2 | 8.08
46 | COc1cccc(N2C(=O)NC(=O)C3(Cc4cc(C)ccc4N(C)C3)C2=O)c1 (centres unmarked) | 15.8
47 | COc1ccc(NC(=O)CCCCCN2C(=O)c3ccccc3C2=O)c(OC)c1 | 3.72
48 | COc1cc(C(=O)NC(=S)Nc2ccc3c(c2)OCO3)cc(OC)c1OC | 2.6
49 | CCOc1ccc(C(C(=O)NC(C)(C)C)N(CCOC)C(=O)CCC(=O)Nc2ccccn2)cc1 (centres unmarked) | 8.52
50 | CCc1ccc(NC(=O)CSc2nc(O)cc(=O)n2C2CCCC2)cc1 | 11.2
51 | CC(C#N)Sc1nc2ccccc2c(=O)n1-c1ccccc1 (centres unmarked) | 2.62
52 | CCn1c(=O)cc(SCC(=O)Nc2ccc(Cl)cc2)c2ccccc21 | 1.1
53 | CC(C)c1ccc(N(CC(=O)NN=C2CCN(C)CC2)S(=O)(=O)c2ccccc2)cc1 | 2.85
54 | Cc1cc(C)n(C(=O)CCC(=O)Nc2ccc(C)c(C)c2)n1 | 13
55 | CC1Cc2ccccc2N1S(=O)(=O)c1cccc(C(=O)NCCCO)c1 (centres unmarked) | -7.47
56 | O=C(CCC(=O)N1CCOc2ccccc21)NCc1cccnc1 | 8.94
57 | Cc1ccc(N(CC2=NCCN2)c2cccc(O)c2)cc1.Cl | -20.3
58 | CC1CC(C)CN(CC(=O)Nc2ccc3c(c2)OCCO3)C1.O=C(O)C(=O)O (centres unmarked) | 7.64
59 | O=C(C1COc2ccccc2O1)N1CCN(c2ccccc2Cl)CC1 (centres unmarked) | 12.8
60 | CCOc1ccc(C(=O)c2cc([N+](=O)[O-])ccc2N2CCOCC2)cc1 | 8.79
61 | Cl.OCCN(CCO)Cc1csc2ccccc12 | 10.9
62 | Cc1noc(C)c1S(=O)(=O)N(CC(=O)N1CCCC1)c1ccc(C(C)C)cc1 | -2.15
63 | COc1cc2nc(NCC3CCCO3)n3nc(-c4cccnc4)nc3c2cc1OC (centres unmarked) | -9.54
64 | O=C(COC(=O)c1cc(=O)[nH]c2ccccc12)Nc1nccs1 | 11.3
65 | CC(=O)c1cccc(NC(=O)CN2CCN(Cc3ccccc3)CC2)c1.Cl | 8.66
66 | CC(C)C(=O)N(c1ccc2oc(=O)sc2c1)S(=O)(=O)c1ccccc1 | 16.4

Row | Compound | hERG current change (%, negative = inhibition) at 1uM [%]
67 | COc1ccc(NC(=O)c2cnn(-c3ccccc3)c2C)cc1OC | 10.1
68 | O=C(NC1CCS(=O)(=O)C1)c1ccc(S(=O)(=O)N2CCCCC2)cc1 (centres unmarked) | -3.73
69 | Cc1ccc(CSc2nnc3c(n2)OC2(Nc4ccccc4-3)C(=O)Nc3ccc(F)cc32)cc1 (centres unmarked) | 13.2
70 | CC(=O)c1ccc(NC(=O)CCNC(=O)c2ccc(Cl)cc2)cc1 | 9.63
71 | COc1ccc(C(=S)N2CCOCC2)cc1OC(=O)c1ccc([N+](=O)[O-])cc1[N+](=O)[O-] | -63.1
72 | COC(=O)c1ccc(C(=O)NC2CCSc3ccccc32)cc1 (centres unmarked) | 15.2
73 | CC(=O)CC(C)(C)NC(C)=S | 7.42
74 | O=c1onc(-c2cccnc2)n1-c1ccccc1F | 14.6
75 | O=[N+]([O-])/C(C(=C(Cl)Cl)N1CCN(Cc2ccccc2)CC1)=C1\NCCN1Cc1ccc(Cl)nc1 | 10.7
76 | O=C(CN1CCCc2ccccc21)Nc1ccc(F)cc1[N+](=O)[O-] | 0.675
77 | O=C1CC(c2ccco2)Cc2nc(Nc3ccc(F)cc3)ncc21 (centres unmarked) | -2.32
78 | CCOc1cc(C(=O)NC(C)COC)cc(OCC)c1OCC (centres unmarked) | 1.02
79 | CCC1CCCCN1CCCNC(=O)CN1C(=O)CSc2ccc(S(=O)(=O)N3CCC(C)CC3)cc21 (centres unmarked) | 14.1
80 | CC(=O)N/C(=N\c1nc(C)cc(C)n1)Nc1ccc2ccccc2c1 | 13.5
81 | C/C(=N\NC(=O)CC1N=C(Cc2ccccc2)NNC1=O)c1ccc(Br)cc1 (centres unmarked) | 15.8
82 | CN1CCN(C(=O)c2ccc(OCCOc3ccccc3)cc2)CC1 | 6.61
83 | COc1ccc(C(=O)Nc2cccc(C(C)=O)c2)c(OC)c1OC | 9.05
84 | COc1ccc(S(=O)(=O)NCC(c2ccc(C)cc2)N2CCN(C)CC2)cc1OC (centres unmarked) | 8.32
85 | CCOc1cc(CNC(=O)CN2C(=O)c3ccccc3S2(=O)=O)ccc1OC | 7.61
86 | Cc1cccc(C)c1OCC(=O)N/N=C/C=C/c1ccco1 | 12.6
